Sequences and labels used below:
B1: RFPL3, O75679 (protein)
chain: MKRLSLVTTNRLSPQGNFLPLCTFPLAVDMAALFQEASSCPVCSDYLEKPMSLECGCTVCLKCINSLQKEPHGEDLLCCCCSMVSQRNKIRPNRQLERLVSHIKELEPKLKKILQMNPRMRKFQVDMTLDADTANNFLLISDDLRSVRSGLITQNRQDLAERFDVSVCILGSPRFTCGRHYWEVDVGTSTEWDLGVCRESVHCKGKIQLTTELGFWTVSLRDGSRLSASTVPLTFLLVDRKLQRVGIFLDMGMQNVSFFDAESGSHVYTFRSVSAEEPLRPFLAPSIPPNGDQGVLSICPLMNSGTTDAPVRPGEAK
B2: LSMD1, Q9BRA0 (protein)
chain: MAGAGPTMLLREENGCCSRRQSSSSAGDSDGEREDSAAERARQQLEALLNKTMRIRMTDGRTLVGCFLCTDRDCNVILGSAQEFLKPSDSFSAGEPRVLGLAMVPGHHIVSIEVQRESLTGPPYL
B3: IKZF3, Q9UKT9 (protein)
chain: MEDIQTNAELKSTQEQSVPAESAAVLNDYSLTKSHEMENVDSGEGPANEDEDIGDDSMKVKDEYSERDENVLKSEPMGNAEEPEIPYSYSREYNEYENIKLERHVVSFDSSRPTSGKMNCDVCGLSCISFNVLMVHKRSHTGERPFQCNQCGASFTQKGNLLRHIKLHTGEKPFKCHLCNYACQRRDALTGHLRTHSVEKPYKCEFCGRSYKQRSSLEEHKERCRTFLQSTDPGDTASAEARHIKAEMGSERALVLDRLASNVAKRKSSMPQKFIGEKRHCFDVNYNSSYMYEKESELIQTRMMDQAINNAISYLGAEALRPLVQTPPAPTSEMVPVISSMYPIALTRAEMSNGAPQELEKKSIHLPEKSVPSERGLSPNNSGHDSTDTDSNHEERQNHIYQQNHMVLSRARNGMPLLKEVPRSYELLKPPPICPRDSVKVINKEGEVMDVYRCDHCRVLFLDYVMFTIHMGCHGFRDPFECNMCGYRSHDRYEFSSHIARGEHRALLK
B4: IKZF1, Q13422 (protein)
chain: MDADEGQDMSQVSGKESPPVSDTPDEGDEPMPIPEDLSTTSGGQQSSKSDRVVASNVKVETQSDEENGRACEMNGEECAEDLRMLDASGEKMNGSHRDQGSSALSGVGGIRLPNGKLKCDICGIICIGPNVLMVHKRSHTGERPFQCNQCGASFTQKGNLLRHIKLHSGEKPFKCHLCNYACRRRDALTGHLRTHSVGKPHKCGYCGRSYKQRSSLEEHKERCHNYLESMGLPGTLYPVIKEETNHSEMAEDLCKIGSERSLVLDRLASNVAKRKSSMPQKFLGDKGLSDTPYDSSASYEKENEMMKSHVMDQAINNAINYLGAESLRPLVQTPPGGSEVVPVISPMYQLHKPLAEGTPRSNHSAQDSAVENLLLLSKAKLVPSEREASPSNSCQDSTDTESNNEEQRSGLIYLTNHIAPHARNGLSLKEEHRAYDLLRAASENSQDALRVVSTSGEQMKVYKCEHCRVLFLDHVMYTIHMGCHGFRDPFECNMCGYHSQDRYEFSSHITRGEHRFHMS

Results on four molecules are retold here after the supplement of paper PMC11741623.

Some of the results follow. Interaction screen of human proteins with wild-type SARS-CoV-2 proteins by split-DHFR complementation in yeast, 1 µg/mL methotrexate. Value = fitness of the pair (three or more lineages) minus that of the viral protein without a human partner, on a scale set by negative (0) and fused positive (1) controls, mean of up to three cultures; higher = more likely to interact. Active = false discovery rate below 0.05 (one-sided t-test) in at least one culture. Nearly all pairs are not hits, and differences among them are mostly noise (correlation between cultures about 0.3); most hits were seen in one culture only. Human sequences are the Swiss-Prot entries looked up by gene name; the clone may be another isoform. NSP2 values were corrected by the authors for a growth advantage. Listed are human proteins with a hit and a random twelfth of the others.

The first test has as its target SARS-CoV-2 E. The test is described as follows: yeast fitness gain over the viral ORF with no human partner (scaled fitness); higher = more likely to interact. The method, then:
(§1)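 Split mouse DHFR complementation in pooled diploid yeast: human ORFeome clones carry one fragment and viral ORFs the other; barcoded lineages compete in 1 µg/mL methotrexate and fitness is read by barcode sequencing in up to three cultures.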
For the molecule B1, the yeast fitness gain is inactive: -0.186.
The same measure, in the same setting: the result for B2 reads inactive: -0.25.
For the molecule B3, the yeast fitness gain is inactive: -0.0405.
Same read-out and setting: the result for B4 reads inactive: -0.0687.

For another test, the target named is SARS-CoV-2 M. Described as above. The method, then: as §1
In the case of B1, the yeast fitness gain was inactive: 0.0313.
For the molecule B3, the yeast fitness gain was inactive: 0.0392.

Another test deals with SARS-CoV-2 N. The description is as above. The method, then:
as §1
With B1, the yeast fitness gain was inactive: -0.0525.
Take B2: the yeast fitness gain was inactive: 0.0643.
On the same count and under the same terms, under B3 stands inactive: 0.0842.

Another test deals with SARS-CoV-2 NSP1. The description is as above. The method, then: as §1
For B1, the yeast fitness gain was inactive: 0.0245.
Take B3: the yeast fitness gain is inactive: -0.117.

The target of the next test is SARS-CoV-2 NSP10. The description is as above. The method, then:
as §1
B1: the yeast fitness gain was inactive: 0.0403.
Still for that read-out and setting: the result for B3 reads inactive: 0.00147; that for B4, inactive: -0.211.

For a further test, the target named is SARS-CoV-2 NSP12. Described as above. The method, then: as §1
With B1, the yeast fitness gain is inactive: -0.0239.
Turning to B3, the yeast fitness gain was inactive: 0.0752.
With B4, the yeast fitness gain was inactive: -0.0885.

Another test deals with SARS-CoV-2 NSP13. The description is as above. The method, then:
as §1
For B1, the yeast fitness gain was inactive: -0.00786.
The same measure, in the same setting: the result for B3 reads inactive: -0.0081; that for B4, inactive: 0.00093.

The target in a further test is SARS-CoV-2 NSP15. The description is as above. The method, then: as §1
As for B1, the yeast fitness gain was inactive: -0.0823.
Take B3: the yeast fitness gain was inactive: 0.023.

A further test addresses SARS-CoV-2 NSP16. The description is as above. On the procedure: as §1
Regarding B1, the yeast fitness gain is inactive: 0.0586.
On the same count and under the same terms, the result for B3 reads inactive: -0.000152.

The target of the next test is SARS-CoV-2 NSP2. The description is as above. The method, then: as §1
Turning to B1, the yeast fitness gain was inactive: -0.194.
Regarding B3, the yeast fitness gain is inactive: -0.105.
On to B4, for which the yeast fitness gain is inactive: -0.14.

The next test has as its target SARS-CoV-2 NSP4. Described as above. On the procedure: as §1
With B1, the yeast fitness gain is inactive: 0.103.
On the same count and under the same terms, under B2 stands inactive: 0.0386; under B3, inactive: 0.135.

The next test concerns the target SARS-CoV-2 NSP5. Described as above. The method, then:
as §1
Consider B1, for which the yeast fitness gain was inactive: -0.065.
Same read-out and setting: the result for B3 reads inactive: -0.0298.

In the next test the target is SARS-CoV-2 NSP6. The test is described as above. The method, then: as §1
For B1, the yeast fitness gain was inactive: 0.0378.
Take B3: the yeast fitness gain was inactive: -0.0512.
Still for that read-out and setting: under B4 stands inactive: 0.0172.

The target of the next test is SARS-CoV-2 NSP7. The test is described as above. On the procedure: as §1
In the case of B1, the yeast fitness gain was inactive: 0.0394.
The same measure, in the same setting: the result for B3 reads inactive: -0.0244.
Consider B4, for which the yeast fitness gain was inactive: -0.0354.

Another test has as its target SARS-CoV-2 NSP8. The description is as above. The method, then: as §1
B1: the yeast fitness gain was inactive: 0.0137.
As to B2, the yeast fitness gain was inactive: -0.0285.
Still for that read-out and setting: under B3 stands inactive: -0.0346.
Take B4: the yeast fitness gain was inactive: 0.0134.

A further test addresses SARS-CoV-2 NSP9. Described as above. On the procedure: as §1
Turning to B1, the yeast fitness gain is inactive: 0.00397.
The same measure, in the same setting: under B3 stands inactive: 0.03.

Another test deals with SARS-CoV-2 ORF10. The description is as above. The method, then: as §1
On to B1, for which the yeast fitness gain is inactive: 0.061.
On the same count and under the same terms, under B3 stands inactive: -0.00173.

For a further test, the target named is SARS-CoV-2 ORF3A. The test is described as above. On the procedure: as §1
On to B1, for which the yeast fitness gain was inactive: -0.0132.
On to B2, for which the yeast fitness gain is inactive: -0.0667.
Still for that read-out and setting: the result for B3 reads inactive: 0.0729.

The next test has as its target SARS-CoV-2 ORF3B. The test is described as above. On the procedure: as §1
As to B1, the yeast fitness gain was inactive: -0.0262.
Still for that read-out and setting: the result for B3 reads inactive: -0.00537.
Take B4: the yeast fitness gain was inactive: 0.0278.

The next test concerns the target SARS-CoV-2 ORF6. The description is as above. The method, then:
as §1
On to B1, for which the yeast fitness gain is inactive: 0.0138.
Turning to B3, the yeast fitness gain was inactive: -0.0174.

The target of another test is SARS-CoV-2 ORF7A. The description is as above. The method, then: as §1
As for B1, the yeast fitness gain is inactive: -0.0371.
Same read-out and setting: under B3 stands inactive: 0.031.

A further test deals with SARS-CoV-2 ORF7B. Described as above. On the procedure: as §1
On to B1, for which the yeast fitness gain is inactive: 0.0214.
Still for that read-out and setting: under B3 stands inactive: -0.0366; under B4, inactive: -0.264.

For the next test, the target named is SARS-CoV-2 ORF8. The test is described as above. The method, then:
as §1
With B1, the yeast fitness gain was inactive: 0.0509.
The same measure, in the same setting: under B3 stands inactive: -0.00483.
Still for that read-out and setting: under B4 stands inactive: -0.156.

Another test deals with SARS-CoV-2 ORF9B. Described as above. On the procedure:
as §1
On to B1, for which the yeast fitness gain was inactive: -0.175.
On to B3, for which the yeast fitness gain is inactive: -0.0154.
On the same count and under the same terms, under B4 stands inactive: 0.0147.

A further test deals with SARS-CoV-2 ORF9Bwu (the 73-codon ORF). The test is described as above. The method, then:
as §1
For the molecule B1, the yeast fitness gain is inactive: 0.0217.
With B3, the yeast fitness gain was inactive: 0.0114.

The target of another test is SARS-CoV-2 S. Described as above. The method, then:
as §1
As to B1, the yeast fitness gain is inactive: 0.0255.
Consider B3, for which the yeast fitness gain is inactive: 0.0331.

The next test has as its target SARS-CoV-2 NSP14. The description is as above. The method, then:
as §1
For B2, the yeast fitness gain is inactive: 0.157.
On the same count and under the same terms, under B3 stands inactive: 0.0187.
